{
  "source": "patent US20250108038A1",
  "about": "(priority 2023, published 2025)",
  "key": {"[1]": {"test": "Metabolic stability in human intestinal homogenate", "format": "in vitro ADME", "conditions": "0.5 mg/mL homogenate, 1 mM NADPH", "procedure": "The intestinal homogenate mixture solution was added to 96-well plates ([…]) in duplicate. […] Reaction was initiated by adding cofactor solution at 10 μL/well.\nThe intrinsic clearances were calculated using the following equations: […]"}, "MDR1": {"molecular_target": "MDR1 (Homo sapiens, UniProt P08183)", "sequence (P08183 whole entry)": "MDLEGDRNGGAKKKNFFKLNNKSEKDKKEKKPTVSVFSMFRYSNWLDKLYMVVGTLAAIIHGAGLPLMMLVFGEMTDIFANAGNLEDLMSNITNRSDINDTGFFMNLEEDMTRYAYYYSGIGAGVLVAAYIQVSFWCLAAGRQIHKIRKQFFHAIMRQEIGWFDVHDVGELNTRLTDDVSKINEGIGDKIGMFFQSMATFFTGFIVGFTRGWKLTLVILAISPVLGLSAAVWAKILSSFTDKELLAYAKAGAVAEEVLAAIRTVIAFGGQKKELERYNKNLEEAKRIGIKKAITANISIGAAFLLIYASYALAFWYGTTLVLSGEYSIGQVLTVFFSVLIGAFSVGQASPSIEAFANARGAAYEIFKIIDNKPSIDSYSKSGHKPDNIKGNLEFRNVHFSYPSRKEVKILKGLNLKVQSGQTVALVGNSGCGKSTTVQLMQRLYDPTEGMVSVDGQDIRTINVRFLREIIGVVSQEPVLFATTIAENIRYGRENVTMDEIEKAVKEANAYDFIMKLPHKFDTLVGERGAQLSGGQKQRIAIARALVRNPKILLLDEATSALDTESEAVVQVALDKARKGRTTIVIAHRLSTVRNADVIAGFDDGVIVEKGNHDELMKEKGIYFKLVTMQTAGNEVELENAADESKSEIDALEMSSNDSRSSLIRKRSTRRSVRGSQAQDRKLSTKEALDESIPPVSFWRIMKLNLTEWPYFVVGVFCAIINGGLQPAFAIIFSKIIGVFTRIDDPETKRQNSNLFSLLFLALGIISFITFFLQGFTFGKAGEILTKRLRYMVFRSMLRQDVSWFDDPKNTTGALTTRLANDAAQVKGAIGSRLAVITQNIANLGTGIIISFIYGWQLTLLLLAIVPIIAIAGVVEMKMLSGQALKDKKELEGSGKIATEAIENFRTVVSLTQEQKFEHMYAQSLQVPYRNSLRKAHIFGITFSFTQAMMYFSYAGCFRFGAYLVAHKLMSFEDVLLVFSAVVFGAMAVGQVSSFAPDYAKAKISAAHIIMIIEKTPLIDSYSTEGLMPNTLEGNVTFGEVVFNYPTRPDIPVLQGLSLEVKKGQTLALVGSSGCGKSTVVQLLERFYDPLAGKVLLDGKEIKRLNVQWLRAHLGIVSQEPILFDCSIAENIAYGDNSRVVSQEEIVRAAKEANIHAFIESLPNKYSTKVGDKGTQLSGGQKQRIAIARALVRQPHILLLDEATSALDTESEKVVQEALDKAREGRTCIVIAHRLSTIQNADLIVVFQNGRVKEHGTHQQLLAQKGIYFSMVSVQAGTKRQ", "test": "Vesicular transport inhibition assay, MDR1 (N-methyl quinidine)", "parameters": "dose or concentration left out as unconfirmed", "conditions": "[…] μM nominal, reference inhibitor", "procedure": "Vesicular transport assays were performed with inside-out membrane vesicles prepared from cells overexpressing human ABC (efflux) transporters. The transporters were expressed by SOLVO Biotechnology in mammalian (HEK293) cells. The mammalian cells were stably transfected with the ABC transporter of interest. The assays were conducted according to the actual SOLVO VT assay protocols (PR-ASY-VT-General Protocol for Vesicular Transport Inhibition Assays).\nThe membrane vesicle suspension was mixed with the ice-cold transport buffer, then the probe substrate solution was added. […] (for BCRP and MDR1). […] Reactions were quenched by the addition of 200 μL of ice-cold washing buffer and immediate filtration via glass fiber filters mounted to a 96-well plate (filter plate). The filters were washed (5×200 μL of ice-cold washing buffer), dried and the amount of substrate inside the filtered vesicles was determined by liquid scintillation counting.\nIncubation with AMP provided background activity values for all data points."}, "OATP1B3": {"molecular_target": "T1, OATP1B3 (Homo sapiens, UniProt Q9NPD5)", "T1 sequence (Q9NPD5 1-702)": "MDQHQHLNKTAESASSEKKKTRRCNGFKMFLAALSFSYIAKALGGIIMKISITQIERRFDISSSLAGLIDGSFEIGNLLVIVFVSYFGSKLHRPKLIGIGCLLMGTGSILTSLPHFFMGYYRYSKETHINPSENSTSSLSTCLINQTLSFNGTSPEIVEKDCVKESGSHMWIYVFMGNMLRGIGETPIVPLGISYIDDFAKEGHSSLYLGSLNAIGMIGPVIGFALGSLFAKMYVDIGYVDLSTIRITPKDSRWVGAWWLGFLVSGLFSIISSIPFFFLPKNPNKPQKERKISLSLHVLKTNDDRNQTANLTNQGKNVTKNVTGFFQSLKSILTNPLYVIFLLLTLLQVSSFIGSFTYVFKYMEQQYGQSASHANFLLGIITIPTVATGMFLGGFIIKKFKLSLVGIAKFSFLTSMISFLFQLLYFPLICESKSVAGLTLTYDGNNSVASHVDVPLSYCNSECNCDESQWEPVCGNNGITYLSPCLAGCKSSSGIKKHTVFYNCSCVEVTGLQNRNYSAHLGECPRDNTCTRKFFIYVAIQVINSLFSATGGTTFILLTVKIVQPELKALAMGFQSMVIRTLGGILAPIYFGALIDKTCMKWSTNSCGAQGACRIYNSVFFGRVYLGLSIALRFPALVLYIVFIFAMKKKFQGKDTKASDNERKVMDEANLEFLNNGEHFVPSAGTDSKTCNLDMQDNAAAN", "test": "Uptake transporter inhibition assay, OATP1B3 (CCK-8)", "procedure": "(§1) Uptake experiments were performed using HEK293 cells stably expressing the respective uptake transporters. The assays were conducted according to the actual SOLVO uptake transporter assay protocols (PR-ASY-UPT-General Protocol for Uptake Transporter Inhibition Assays).\n(§2) Cells were cultured at 37° C. in a humidified atmosphere containing 5% CO2 and were plated onto standard 96-well tissue culture plates.\n(§3) Before the experiment, the medium was removed, and the cells were washed twice with 100 μL of pre-warmed (37° C.) assay buffer listed in Table 15. The cells were pre-incubated at 37° C. for 30 minutes in assay buffer containing the test article at appropriate concentrations (Table 16), appropriate solvents for solvent controls and the reference inhibitor for reference inhibitor wells. After the pre-incubation step solutions were removed. Uptake experiments were performed at 37° C. in 50 μL of assay buffer containing the probe substrate and the test article or solvent and controls.\n(§4) After the experiment, cells were washed twice with 100 μL of appropriate cold buffer and lysed with 150 μL scintillation cocktail. Radiolabeled probe substrate transport was determined by liquid scintillation counting.\n(§5) Uptake of the probe substrate in control cells provided background activity values for all data points."}, "OATP1B1": {"molecular_target": "T2, OATP1B1 (Homo sapiens, UniProt Q9Y6L6)", "T2 sequence (Q9Y6L6 1-691)": "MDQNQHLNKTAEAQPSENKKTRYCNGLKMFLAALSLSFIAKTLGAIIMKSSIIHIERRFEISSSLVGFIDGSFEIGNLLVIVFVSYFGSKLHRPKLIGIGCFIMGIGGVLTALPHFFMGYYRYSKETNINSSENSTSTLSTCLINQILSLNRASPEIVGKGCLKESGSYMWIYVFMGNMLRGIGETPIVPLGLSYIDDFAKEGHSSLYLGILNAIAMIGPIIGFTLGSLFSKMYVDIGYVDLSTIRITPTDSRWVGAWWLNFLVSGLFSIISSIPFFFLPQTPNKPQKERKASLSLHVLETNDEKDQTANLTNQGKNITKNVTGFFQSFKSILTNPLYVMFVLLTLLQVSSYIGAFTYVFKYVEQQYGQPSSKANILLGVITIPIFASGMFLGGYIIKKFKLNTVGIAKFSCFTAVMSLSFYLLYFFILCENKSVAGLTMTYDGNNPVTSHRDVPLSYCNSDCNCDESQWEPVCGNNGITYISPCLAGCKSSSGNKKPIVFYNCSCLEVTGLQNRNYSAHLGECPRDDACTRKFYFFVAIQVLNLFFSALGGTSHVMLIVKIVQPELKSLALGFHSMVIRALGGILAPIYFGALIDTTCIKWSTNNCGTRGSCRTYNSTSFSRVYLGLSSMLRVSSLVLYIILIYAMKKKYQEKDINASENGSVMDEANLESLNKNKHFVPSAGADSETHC", "test": "Uptake transporter inhibition assay, OATP1B1 (estradiol-17-β-glucuronide)", "procedure": "as §1, §2, §3, §4, §5"}, "[2]": {"conditions": "50.00 μM, reference inhibitor, follow-up assay"}, "[3]": {"conditions": "50.00 μM nominal, E217βG, Table 131"}},
  "data": [
    {"smiles": "C[C@]12CC[C@H]3[C@@H](CCC4=CC(=O)CC[C@@]43C)[C@@H]1CC[C@@H]2O", "note": "[Testosterone, reference compound]", "values": [
      {"measurement": "CLint(HIH)", "setting": "[1]; 1 μM", "result": 41.8, "unit": "µL/min/mg"},
      {"measurement": "half-life at 1 μM", "setting": "[1]; human, human intestinal homogenate", "result": 33.2, "unit": "min"}
    ]},
    {"smiles": "C/C=C/C[C@@H](C)C(=O)[C@H]1C(=O)N[C@@H](C(C)C)C(=O)N(C)CC(=O)N(C)[C@@H](CC(C)C)C(=O)N[C@@H](C(C)C)C(=O)N(C)[C@@H](CC(C)C)C(=O)N[C@@H](C)C(=O)N[C@H](C)C(=O)N(C)[C@@H](CC(C)C)C(=O)N(C)[C@@H](CC(C)C)C(=O)N(C)[C@@H](C(C)C)C(=O)N1C", "note": "[Valspodar]", "values": [
      {"measurement": "Relative inhibition", "setting": "MDR1", "result": 99, "unit": "%"},
      {"measurement": "Relative inhibition", "setting": "MDR1; follow-up assay", "result": 96, "unit": "%"}
    ]},
    {"smiles": "C/C=C/C[C@@H](C)C(=O)[C@H]1C(=O)N[C@@H](C(C)C)C(=O)N(C)CC(=O)N(C)[C@@H](CC(C)C)C(=O)N[C@@H](C(C)C)C(=O)N(C)[C@@H](CC(C)C)C(=O)N[C@@H](C)C(=O)N[C@H](C)C(=O)N(C)[C@@H](CC(C)C)C(=O)N(C)[C@@H](CC(C)C)C(=O)N(C)[C@@H](C(C)C)C(=O)N1C", "note": "[valspodar]", "values": [
      {"measurement": "Relative ATP-dependent transport", "setting": "MDR1", "result": "0.18 ± 0.68 % of control"}
    ]},
    {"smiles": "CO[C@H]1/C=C/O[C@@]2(C)Oc3c(C)c(O)c4c(O)c(c(/C=N/N5CCN(C)CC5)c(O)c4c3C2=O)NC(=O)/C(C)=C\\C=C\\[C@H](C)[C@H](O)[C@@H](C)[C@@H](O)[C@@H](C)[C@H](OC(C)=O)[C@@H]1C", "note": "[Rifampicin]", "values": [
      {"measurement": "Relative transporter specific accumulation", "setting": "OATP1B3; 50.00 μM nominal, CCK-8, Table 120", "result": "0.71 ± 0.29 % of control"},
      {"measurement": "Relative transporter specific accumulation", "setting": "OATP1B3; 50.00 μM nominal, CCK-8, Table 132", "result": "1.50 ± 0.24 % of control"},
      {"measurement": "Relative transporter specific accumulation", "setting": "OATP1B3; 50.00 μM, reference inhibitor", "result": "1.41 ± 0.25 % of control"},
      {"measurement": "Relative transporter specific accumulation", "setting": "OATP1B3; [2]", "result": "0.54 ± 0.31 % of control"},
      {"measurement": "inhibition at 50 µM", "setting": "OATP1B3; human", "result": 99, "unit": "%"},
      {"measurement": "inhibition at 50 μM", "setting": "OATP1B3; human", "result": 99, "unit": "%"},
      {"measurement": "Relative transporter specific accumulation", "setting": "OATP1B1; 50.00 μM nominal, E217βG, Table 119", "result": "0.84 ± 0.23 % of control"},
      {"measurement": "Relative inhibition", "setting": "OATP1B1; [3]", "result": 99, "unit": "%"},
      {"measurement": "Relative transporter specific accumulation", "setting": "OATP1B1; [3]", "result": "1.12 ± 0.11 % of control"},
      {"measurement": "Relative transporter specific accumulation", "setting": "OATP1B1; 50.00 μM, reference inhibitor", "result": "0.51 ± 0.31 % of control"},
      {"measurement": "Relative transporter specific accumulation", "setting": "OATP1B1; [2]", "result": "0.86 ± 0.39 % of control"},
      {"measurement": "inhibition at 50 µM", "setting": "OATP1B1; human", "result": 99, "unit": "%"}
    ]}
  ]
}
